Hit rate of the full screen: of about 45,000 compounds, about 200 (0.44%) were called active. Not shown: some 7% with an inconclusive outcome. The call rests on the fitted dose curve; in most records, active means well fitted activation curve with a large enough effect; inconclusive means small, poorly fitted or top-dose-only effect; inactive means no such curve, though single readings can be large or run the other way. This is one part of the list.

Consider 105 compounds from PubChem BioAssay AID1347073 (National Center for Advancing Translational Sciences (NCATS), 2019).

The test in a line: qHTS of TDP-43 Inhibitors: NCGC Sytravon Library Screen. Further: 0% is about no effect; nearly all actives have a fitted effect of over 55% in size. Conditions: yeast TDP-43 toxicity rescue, BacTiter-Glo growth, 24 h; series mostly up to 46.1 µM; growth rescue (activation): at the top concentration. Summed up: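 TDP-43-expressing yeast, pregrown in raffinose, seeded at OD600 0.02 in galactose medium with compound for 24 hr at 30 deg C. Growth read by BacTiter-Glo luminescence, so rescue of toxicity appears as activation.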
Regarding `CCOc1cc(/C=N/NC(=O)CSc2cccc3cccnc23)ccc1O`, the “growth rescue (activation)” value was inactive: -1.21%.
Regarding `Cc1ccc(NC(=S)N2CCCN(Cc3ccc(F)cc3)C2)c(C)c1`, the “growth rescue (activation)” value was inactive: 8.3%.
As for `COc1cc(/C=N/N=C(\N)c2nonc2N)ccc1O`, the “growth rescue (activation)” value was inactive: -13.5%.
For the compound `C[C@H](N)c1nnc(SCC(N)=O)o1`, the “growth rescue (activation)” value was inactive: -12.8%.
Consider `CCOC(=O)c1cc(C)sc1NC(=O)CN1CCN(C(=O)c2ccco2)CC1`, for which the “growth rescue (activation)” value was inactive: 7.15%.
As to `CC1CCN(Cc2c(C(=O)N/N=C/c3cc(Cl)ccc3O)nnn2-c2nonc2N)CC1`, the “growth rescue (activation)” value was inactive: 12.8%.
Take `N#Cc1ccc(NC(=O)c2cc(-c3cccs3)on2)cc1`: the “growth rescue (activation)” value was inactive: -4.29%.
For `COC(=O)/C(C#N)=C1/C=Cc2ccccc2N1` the value was inactive: 22.7%.
Regarding `COc1ccc(CC(=O)Nc2nc3n(n2)C(c2ccccc2)CC(=O)N3)cc1OC` (stereo not given), the “growth rescue (activation)” value was inactive: -4.85%.
For the compound `NC(=O)c1ccc(S(=O)(=O)N2CCSCC2)cc1`, the “growth rescue (activation)” value was inactive: 4.58%.
For `Oc1ccc(/C=N/Nc2cc(N3CCOCC3)nc(N3CCOCC3)n2)cc1O` the value was inactive: 3.89%; for `Cc1ccc(-c2ccc(CO)o2)cc1N`, inactive: 16.3%; for `Cn1c(=O)c2[nH]c(N3CCN(c4cccc(O)c4)CC3)nc2n(C)c1=O`, inactive: 9.03%.
`Cc1onc(-c2c(F)cccc2Cl)c1C(=O)NC1CCCCCC1`: the “growth rescue (activation)” value is inactive: 8.68%.
As to `O=C(Nc1ccc2c(c1)OCO2)c1ccc2nc([C@@H]3O[C@H](CO)[C@H](O)[C@H](O)[C@H]3O)[nH]c2c1`, the “growth rescue (activation)” value was inactive: -9.3%.
For `CC(=O)c1ccc(NC(=O)C2CCCN(S(=O)(=O)c3c(C)[nH]c(=O)[nH]c3=O)C2)cc1` (stereo not given) the value was inactive: -2.51%.
For `CCc1ccc(CN(C)CC(=O)Nc2ccccc2[N+](=O)[O-])cc1` the value was inactive: 19.7%.
For `CN(C)CC1CCCCC1OC(=O)c1ccc(S(=O)(=O)N(C)c2ccccc2)cc1` (stereo not given), the “growth rescue (activation)” value is inactive: 1.8%.
`COCCNC(=O)CCn1nc(-c2ccc(C)cc2)c2ccccc2c1=O`: the “growth rescue (activation)” value is inactive: 10.2%.
For `CC1(C)C(C(=O)O)N2C(=O)C(NC(=O)Cc3ccccc3)C2S1=O` (stereo not given) the value was inactive: 5.76%.
Consider `CCN(CC)S(=O)(=O)c1cccc(C(=O)N/N=C/c2cc(OC)c(O)c(OC)c2)c1`, for which the “growth rescue (activation)” value was inactive: -26.8%.
The value for `O=C(N/N=C/c1cccnc1)/C(=C\c1cccs1)NC(=O)c1ccccc1` was inactive: 4.8%; that for `Cc1cccc(N2CC(C(=O)O)CC2=O)c1C` (stereo not given) was inactive: 10.1%.
With `CC(=O)Nc1ccc(C(=O)CN2C(=O)NC3(CCCCCC3)C2=O)c(F)c1`, the “growth rescue (activation)” value is inactive: 19.5%.
In the case of `CC(C(N)=O)N1c2cccc3cccc(c23)S1(=O)=O` (stereo not given), the “growth rescue (activation)” value was inactive: 0.127%.
The value for `CCCCN(C(=O)CCC(=O)Nc1cc(C)on1)C(C(=O)NC1CCCC1)c1ccc(OCC)cc1` (stereo not given) was inactive: 3.72%.
The value for `C=CCN1C(=O)C(CC(=O)Nc2ccccc2)N(Cc2ccccn2)C1=S` (stereo not given) was inactive: 9.18%; that for `CC(C)C1CC(CCN)(Cc2ccccc2)CCO1` (stereo not given) was inactive: -33.3%; that for `O=C(CN1CCC(NC(=O)Nc2ccccc2)CC1)Nc1ccccc1F` was inactive: 0.367%.
The value for `COC(=O)Cc1ccc(N(Cc2ccccc2F)S(=O)(=O)c2ccc(C)cc2)cc1` was inactive: -10.8%.
As for `COc1ccc(NS(=O)(=O)c2cc(NC(=O)c3cnccn3)ccc2N2CCCC2)cc1`, the “growth rescue (activation)” value is inactive: 11.6%.
For `CCOC(=O)c1cc(C(=O)NN)c(=O)[nH]c1C` the value was inactive: -8.26%; for `COc1cccc(C(c2ccccc2)N2C3CCC2CN(S(=O)(=O)c2ccc(F)cc2)CC3)c1` (stereo not given), inactive: 9.26%; for `O=C(NC(=S)N1CCN(c2ccc([N+](=O)[O-])cc2)CC1)c1ccc(F)cc1`, inactive: 2.73%.
For `CC(CC(=O)NCc1ccc(F)cc1)c1ccccc1` (stereo not given) the value was inactive: 27%; for `NS(=O)(=O)c1ccc(CCNC(=O)c2cc(-c3cccs3)nc3ccccc23)cc1`, inactive: -1.21%; for `CCOC(=O)c1c(NC(=O)c2ccc(C)c(C)c2)sc2c1CCCCC2`, inactive: -2.53%.
The value for `CCCCn1c(=O)c(CCC(=O)OCC(=O)Nc2cc(Cl)ccc2OC)nc2ccccc21` was inactive: 9.41%.
As for `CCOC(=O)c1cc2nc(Nc3ccc(OC)cc3)sc2s1`, the “growth rescue (activation)” value is inactive: 17.8%.
The value for `COc1ccc(-c2cc(C(=O)NCC3CCCO3)c3cc(C)ccc3n2)cc1` (stereo not given) was inactive: -4.09%; that for `CC(C)(C)NC(=O)C(c1ccc(O)cc1)N(Cc1ccccc1)C(=O)CCC(=O)Nc1nccs1` (stereo not given) was inactive: 3.85%; that for `CC(=O)Nc1ccc(-c2ccnc3c2CC(C(=O)NCCc2ccccc2)O3)cc1` (stereo not given) was inactive: 10%.
Consider `C/C(=N\Nc1ccc(C)c(Cl)c1)c1ccncc1`, for which the “growth rescue (activation)” value is inactive: -10.4%.
In the case of `CCOc1ccc(S(=O)(=O)Nc2ccc3c(c2)n(C)c(=O)n3C)cc1`, the “growth rescue (activation)” value is inactive: 6.61%.
Regarding `COc1cc2c(cc1OC)C(C(=O)Nc1ccc3c(c1)OCCO3)C1c3ccccc3CCN1C2=O` (stereo not given), the “growth rescue (activation)” value is inactive: 20.8%.
In the case of `O=C(CSc1nnc2c(n1)[nH]c1ccccc12)N1CCCCC1`, the “growth rescue (activation)” value was inactive: -2.24%.
The value for `N#Cc1cc([N+](=O)[O-])ccc1N1CCCC1` was inactive: 25.4%; that for `COc1ccc(CCN2C(=O)CC(Cc3ccc(Br)cc3)C2=O)cc1OC` (stereo not given) was inactive: 17.1%.
For `CCN(CC)CCN1c2ccccc2Sc2ccccc21` the value was inactive: 6.37%.
Turning to `COc1ccc(Cl)cc1C(=O)Nc1ccc(OCC(=O)N2CCOCC2)cc1`, the “growth rescue (activation)” value is inactive: -3.93%.
For `O=C(Nc1ccccc1)N1CCCc2ccccc21` the value was inactive: 29.3%.
As for `OC1CCN(c2cc(-c3ccccc3)nc3cc(-c4ccc(F)cc4)nn23)CC1`, the “growth rescue (activation)” value was inactive: 21.1%.
On to `CC(CC(=O)Nc1ccc(Cl)c(S(=O)(=O)N2CCOCC2)c1)c1ccccc1` (stereo not given), for which the “growth rescue (activation)” value is inactive: 11.6%.
The value for `Cc1cc(C(=O)Nc2sccc2C(N)=O)c(C)o1` was inactive: -27.9%.
In the case of `Cc1ccc(S(=O)(=O)N2CCCC2)cc1C(=O)NCc1ccccn1`, the “growth rescue (activation)” value is inactive: 3.01%.
Regarding `CCc1ccc(C(=O)OCC(=O)c2c(N)n(CC(C)C)c(=O)n(C)c2=O)cc1`, the “growth rescue (activation)” value is inactive: 8.62%.
As to `Cc1ccc(-c2n[nH]c(=O)c3ccccc23)cc1S(=O)(=O)NCC1CCCO1` (stereo not given), the “growth rescue (activation)” value was inactive: 2.73%.
For `COc1cc(C(C(=O)NC2CCCC2)N(C(=O)c2snc(C(N)=O)c2N)c2ccccc2)cc(OC)c1OC` (stereo not given) the value was inactive: -7.62%; for `Cc1ccc(-c2noc(-c3nnn(CC(=O)Nc4cc(Cl)ccc4C)c3N)n2)cc1`, inactive: 12.8%.
As for `O=C(CCS(=O)(=O)CCN1CCOCC1)NCNC(=O)CCS(=O)(=O)CCN1CCOCC1`, the “growth rescue (activation)” value is inactive: 3.33%.
The value for `COc1ccc(S(=O)(=O)N2CCN(C)CC2)cc1NC(=O)c1ccccc1F` was inactive: 4.37%; that for `CC(C)CC(=O)Nc1ccc(C(=O)Cn2nc(C(=O)O)c3ccccc3c2=O)cc1` was inactive: 5.4%; that for `CCC(C)NC(=O)COC(=O)c1cc([N+](=O)[O-])ccc1Sc1nc(C)cs1` (stereo not given) was inactive: 8.19%.
Turning to `O=C(COC(=O)c1ccc(Cl)c(S(=O)(=O)N2CCCCCC2)c1)Nc1ccccc1`, the “growth rescue (activation)” value is inactive: 28.6%.
On to `COc1ccc(C2CC(=O)C=C(O)C2)cc1` (stereo not given), for which the “growth rescue (activation)” value is inactive: -17%.
The value for `CCc1cccc(CC)c1NC(=O)COC(=O)CC1c2ccccc2CCN1S(=O)(=O)c1ccccc1` (stereo not given) was inactive: 19%; that for `CC1(C)C2CCC1(CS(=O)(=O)NC(CC(=O)O)c1cccc(Br)c1)C(=O)C2` (stereo not given) was inactive: 2.92%.
For `CCCS(=O)(=O)N1CCN(Cc2ccccc2[N+](=O)[O-])CC1` the value was inactive: -5.03%.
As for `CCOc1ccc(-c2nnc(-c3ccncc3)o2)cc1OCC`, the “growth rescue (activation)” value was inactive: -3.82%.
The value for `COCCN(Cc1ccccc1)P(=O)(O)c1ccccc1OCC(=O)O` was inactive: -0.471%; that for `CCCCNC(=O)COC(=O)c1ccc(SC)cc1OC` was inactive: 8.94%; that for `CCc1cc2c(SCc3nc4sc(C(C)=O)c(C)c4c(=O)[nH]3)ncnc2s1` was inactive: 5.59%.
The value for `COc1ccc(C)cc1Nc1nc(N)c2cc(OC)c(OC)cc2n1` was inactive: 3.56%; that for `Cc1ccc(S(=O)(=O)N2CCN(c3ccc([N+](=O)[O-])c(Sc4nncn4C)c3)CC2)cc1` was inactive: 0.784%.
Turning to `O=C(NCc1ccccc1F)C1CCCN(C(=O)Nc2ccc(F)cc2)C1` (stereo not given), the “growth rescue (activation)” value is inactive: -2.48%.
For `C[C@H]1C(=O)N(C)CCN1Cc1cn(C)nc1-c1ccc(Oc2ccccc2)cc1` the value was inactive: 7.31%; for `Cn1cc(CN2CCC(C(=O)N3CCCC3)CC2)c(-c2ccccc2F)n1`, inactive: 3.82%.
The value for `Cc1nn(-c2ccc(Cl)cc2)c2sc(C(=O)N3CCN(c4ccccn4)CC3)cc12` was inactive: 30.8%; that for `COc1ccc2cnn(-c3ccc(OC(F)(F)F)cc3)c(=O)c2c1OC` was inactive: 11%; that for `CCCOc1ccc(CSc2n[nH]c(C)n2)cc1` was inactive: 11.6%.
Turning to `O=C(CCS(=O)(=O)c1ccccc1)Nc1ccc(S(=O)(=O)Nc2ncccn2)cc1`, the “growth rescue (activation)” value was inactive: 13.7%.
For `O=C(Nc1nccs1)c1c(O)c2c([nH]c1=O)CCCC2` the value was inactive: -2.01%.
The value for `CCCCOc1ccc(C(=O)N/C(=C/C=C/c2ccccc2)C(=O)N2CCOCC2)cc1` was inactive: -12.5%; that for `Cc1ccc(-n2nnnc2SC(C)C(=O)NCC(=O)Nc2ccc(F)c(F)c2F)c(C)c1` (stereo not given) was inactive: 16.5%; that for `Cc1ccc(OCC(=O)NCCCNC(=O)c2cnccn2)cc1C` was inactive: 14.7%.
Take `O=S1(=O)N=C(N/N=C/c2ccc(Br)o2)c2ccccc21`: the “growth rescue (activation)” value is inactive: 5.51%.
For `COc1cc(C(=O)NC2CCCc3ccccc32)cc(OC)c1OC` (stereo not given), the “growth rescue (activation)” value is inactive: 25%.
The value for `COc1ccc(C(=O)Nc2ccccc2C(=O)Nc2cccnc2)cc1` was inactive: -39.6%; that for `CSc1ccc(S(=O)(=O)NC(C)c2ccccc2)cc1` (stereo not given) was inactive: 16.7%.
The value for `COc1ccccc1CNc1nc(NCCOc2ccccc2Cl)c2sccc2n1` was inactive: 14.4%; that for `CCc1ccc(NC(=O)C2CCCN(S(=O)(=O)c3cccs3)C2)cc1` (stereo not given) was inactive: 6.72%; that for `CC(=O)N1N=C(c2cccnc2)OC1c1ccc(C(C)C)cc1` (stereo not given) was inactive: 8.99%.
Consider `COc1ccc(-c2cc(C(=O)N3CCN(c4ccccc4F)CC3)c3ccccc3n2)c(OC)c1`, for which the “growth rescue (activation)” value was inactive: -86.1%.
The value for `COc1cccc(/C=C2/SC(=O)N(C)C2=O)c1OCc1ccc(C(=O)O)cc1` was inactive: 2.44%.
`CC1SC(=S)N(c2ccc(N(C)C)cc2)C1=O` (stereo not given): the “growth rescue (activation)” value was inactive: -9.46%.
As for `COc1ccc(NC(=O)CNC(=O)Cc2ccccc2)cc1`, the “growth rescue (activation)” value is inactive: 0.802%.
The value for `Cc1ccc(C(=O)CCC(=O)Nc2cccc(C(F)(F)F)c2)cc1` was inactive: 27.2%.
The value for `CC(=O)c1ccc(NC(=O)COC(=O)Cn2cnc3ccccc32)cc1` was inactive: 22%; that for `Cn1ncc(N=Cc2ccc([N+](=O)[O-])cc2)c1C(=O)Nc1ccccc1` was inactive: 0.812%; that for `c1ccc2[nH]c(CSc3nnc(-c4ccncc4)o3)nc2c1` was inactive: 2.49%.
In the case of `COC(=O)[C@H](CC(C)C)NC(=O)Nc1ccc(F)cc1`, the “growth rescue (activation)” value is inactive: 0.555%.
The value for `Nc1ccc(-c2c3ccc(=O)cc-3oc3cc(O)ccc23)cc1C(=O)O` was inactive: -4.45%; that for `COc1ccc(CCCNC(=O)C2Cc3c(-c4ccc(NC(C)=O)cc4)ccnc3O2)cc1` (stereo not given) was inactive: 1.24%.
Regarding `CCn1c(CC(=O)Nc2ccccc2)nnc1SCC(=O)NC1CCCC1`, the “growth rescue (activation)” value was inactive: -8.85%.
Turning to `CS(=O)(=O)c1ccc(C(=O)OC2CCOC2=O)cc1[N+](=O)[O-]` (stereo not given), the “growth rescue (activation)” value was inactive: -1.5%.
